The record followed here is the RNAGym collection of RNA variant scans (doi:10.1093/nar/gkz1192).

First the molecules themselves.
B1: CPEB3 Ribozyme (parent)
chain: UAACAGGGGGCCACAGCAGAAGCGUUCACGUCGCAGCCCCUGUCAGAUUCUGGUGAAUCUGCGAAUUCUGCUGUAUAUCUC

Read counts are not given, so values of variants with three or more changes are uncertain.

Variants of B1 are the subject of this data set. Briefly: self-cleavage, relative activity (ratio to wild type); higher = more cleavage; in vitro, sequencing. The method, boiled down:
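For each CPEB3 ribozyme variant, relative activity is its cleaved/total read fraction divided by the unmutated ribozyme's. Barcoded error-prone PCR libraries were transcribed by T7 RNA polymerase (5 hours, 37°C) and held in DNase I for 15 min before an EDTA stop, with cleavage occurring throughout. Template-switching reverse transcription and Illumina sequencing were used to read the RNAs. A 5-read minimum applied, and results are the mean of three batches.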
Turning to A21C U49C U67C A75G, the self-cleavage was 0.1.

Consider A20U U41A A56G U78C, for which the self-cleavage came to 0.06. As for A21G U25A U60C A65G, the self-cleavage is 0.01. In the case of A21G G30U U41C C62A U80A, the self-cleavage is 0.05. In the case of A21G U41A A65G U69C U72A U78G, the self-cleavage was determined as 0.11.

For A20U U43C U54C U69A, the self-cleavage came to 0.09. Regarding A21G U41A U51A U69C U80C, the self-cleavage was 0.18. With A20U C32U U54C A57U U72C, the self-cleavage was determined as 0.1. A21G G22A A47G U58C U80C: the self-cleavage amounted to 0.12.

As to A21G C37U C40A, the self-cleavage came out at 0.08.

Consider A20U U25C U26C, for which the self-cleavage stood at 0.07. As to A21G G42U U60A, the self-cleavage was found to be 0.25. With A21G G30C A65G, the self-cleavage amounted to 0.14.

For the variant A20U U51A A75U C79U, the self-cleavage was determined as 0.19. With A21G U31C U78C, the self-cleavage was 0.23. In the case of A21G G53A G55C A75G it was 0.47; in that of A20U C23G U54C, 0.16; in that of A21G A35U U49A A64G C71U, 0.2. Regarding A20U U31A A35G A45C U54G U72C U78C, the self-cleavage is 0.06. The value for A21G A28G A35G U58C was 0.16; that for A20U C32U G52A A56U A57G U76G was 0.09. In the case of A21G C27U A47G A57G, the self-cleavage is 0.07. The value for A21G C32U G53A U67A was 0.07; that for A21G U31C C37A U74C was 0.08.

With A20U A45G U67C, the self-cleavage came out at 0.13. For A20U U26C U41C, the self-cleavage was 0.26.

For the variant A20U A57G U72A, the self-cleavage was found to be 0.15.

Consider A20U A57G U72C, for which the self-cleavage turned out to be 0.21. As for A21G A28U U74A, the self-cleavage was determined as 0.84.

As for A21G U26A C38U U41C U49C U58C, the self-cleavage amounted to 0.05.

Take A20U U26C C27U A56G: the self-cleavage was determined as 0.15. In the case of A21G A28U U54C U72A G73A U80C, the self-cleavage was 0.62.

For the variant A21G U41A A57G, the self-cleavage came out at 0.08.

A20U A28G U31C U48C U51A A56G: the self-cleavage came out at 0.26. In the case of A20U U48A U54A it was 0.2; in that of A20U A45G C71A U78C, 0.12. With A21G A45G C50G, the self-cleavage was found to be 0.16. With A21G A35G U51C, the self-cleavage was determined as 1.17. For the variant A21G C32U U43A U54C A56G A57G U67C, the self-cleavage stood at 0. On to A21G U31C C39G U78A, for which the self-cleavage worked out at 0.03. For the variant A20U A28U U80C, the self-cleavage is 0.34. Regarding A21G U25G U54A, the self-cleavage amounted to 0.38. For A20U C29U G52A U58C, the self-cleavage turned out to be 0.05. For A20U C62U U69A U72C, the self-cleavage was 0.22. On to A20U U31A G36A G53A U80G, for which the self-cleavage turned out to be 0.07. With A20U U26C C39U U43C U54C U67C, the self-cleavage is 0.08.

Regarding A20U A35U U49A U54C G70A U80A, the self-cleavage was determined as 0.06. Turning to A20U U41A U66C, the self-cleavage was found to be 0.21. In the case of A21G U25A U41C A57G it was 0.07; in that of A20U C34G U67C, 0.04; in that of A21G A28G A35G A65U A77G, 0.12.

Turning to A20U G46U C50U A56G U67C U69G, the self-cleavage was determined as 0.11. In the case of A20U A47G U58C, the self-cleavage turned out to be 0.23. On to A21G C50G A77U U78A, for which the self-cleavage came out at 0.09. The value for A21G U25A C32A C37G G70A was 0.05; that for A20U A35U G63U A64G was 0.44. Regarding A20U U26C U43G A64G U72C, the self-cleavage came out at 0.07. For A20U U25C U31C U66C U69C U78C, the self-cleavage was 0.04.

A21G U26A A35G C68A: the self-cleavage stood at 0.51.

On to A20U C44U U51C A64G U80C, for which the self-cleavage turned out to be 0.07. Turning to A21C A45U U66C, the self-cleavage amounted to 0.13. In the case of A21G C38U U66C it was 0.97; in that of A20U U67A U72A, 0.78.

Take A21G C34A U72A U80G: the self-cleavage was found to be 0.34.

A21C G33C A57G U72C: the self-cleavage amounted to 0.14.

As for A21G C27A U51A U60C C71U, the self-cleavage worked out at 0.04. For A21G C62G A64G U76A U80C, the self-cleavage was found to be 0.03. In the case of A21G C40A U41C it was 0.27; in that of A21G U25C C68A, 0.31. In the case of A20U U43A U72C it was 0.19; in that of A21G U31A C62U U69A, 0.06. For the variant A20U U41C C81U, the self-cleavage stood at 0.34. In the case of A21G C27U A65G, the self-cleavage worked out at 0.1.

In the case of A21G A56U U67G U69C A77G, the self-cleavage turned out to be 0.06. In the case of A20U A56G A57G U76C, the self-cleavage stood at 0.07.

Regarding A21G G30U U41C U72C U78A, the self-cleavage came to 0.05. On to A20U U26G A28G C29A U66C, for which the self-cleavage came out at 0. In the case of A21G U41A U69G it was 0.3; in that of A21C U25C U26C C32U, 0.04; in that of A20U U54A U60A, 0.23. In the case of A21G C23A U26C it was 0.07.

As for A20U U41A C62G U69A U74G U80C, the self-cleavage came out at 0.09. For A21G A45U U54C, the self-cleavage was 0.12. Turning to A20U A35U A75U, the self-cleavage worked out at 0.28.
